From ChEMBL document CHEMBL1201862, “PubChem BioAssay data set” (2004)

Tested on: NCI-H322M
Experiment: NCI-60 cell line screen, 48 h

Structure (SMILES) | GI50
N/N=C(\CC1OC(=O)c2ccccc21)c1ccco1 (centres undefined) | inactive: > 100 µM
C=C1C(=O)O[C@H]2C/C(C=O)=C\[C@H]3O[C@H]3/C(COC(=O)C(C)C)=C/CC12 (some centres undefined) | inactive: 13.1 µM
Clc1ccc2c(c1)[nH]c1c2nc2sccn21 | inactive: > 100 µM
O=C(O)c1ccccc1C(=O)Nn1cnnc1 | inactive: > 100 µM
C[C@]12CCC(=O)C(O)=C1CC[C@@H]1C2CC[C@]2(C)NC(=O)CCC12 (some centres undefined) | inactive: > 100 µM
CC(C)(C)OC(=O)NC(Cc1ccc(O)cc1)C(=O)N1CCCC1C(=O)O (stereo not drawn) (Boc-Tyr-Pro-OH; configuration not given here) | inactive: > 100 µM
Cc1ccc(NC(=O)CC(=O)n2nc(C)c(/N=N/c3cccc(C)c3)c2C)cc1 | inactive: > 100 µM
[N-]=[N+]=Nc1ccc(CNc2cc(=O)[nH]c(=O)[nH]2)cc1 | inactive: > 100 µM
Clc1ccc2nc3c(c(-c4ccccc4)nn3-c3ccccc3)c(-c3ccccc3)c2c1 | inactive: > 100 µM
CCCCCC/C=C\CCCCCCCCCc1cccc(OC)c1O | inactive: > 100 µM
CCOC(=O)CCn1ncc(Cl)c(Cl)c1=O | inactive: 13.9 µM
N=C(c1ccccc1)N(O)C1CCCCC1 | inactive: > 100 µM
CC(=O)Oc1ccn2nc(C)c(Br)c2c1Br | inactive: > 68.1 µM
CC1(C)OCC2OC3([C@H](O)CCO)OC(C)(C)OC3C2O1 (some centres undefined) | inactive: > 100 µM
CCCCCCCCCCC(O)C1CCC(C(O)CCC(O)C2CCC(CCCCCCC[C@H](O)CC3=C[C@@H](C)OC3=O)O2)O1 (some centres undefined) | inactive: > 100 µM
COc1cccc(-c2nccc3c(OCc4ccccc4)c(OC)c(OC)cc23)c1 | inactive: > 100 µM
OCC1CCC(n2cnc3c(O)ncnc32)O1 (centres undefined) | inactive: > 100 µM
CCCS(=O)OC1C(C2COC(C)(C)O2)OC2OC(C)(C)OC21 (centres undefined) | inactive: 16.4 µM
COc1ccc(/C=C2\C[C@H]3[C@@H]4CCC5=C/C(=N/O)CC[C@]5(C)[C@H]4CC[C@]3(C)\C2=N\O)cc1OC | inactive: 9.14 µM
CSCCCN(CCCSC)CCCSC | inactive: > 100 µM
CCCCCCCCSC1=C(Cl)C(=O)C(OC)=C(OC)C1=O | inactive: 16.6 µM
O=S(=O)(O)C(Cc1nc2ccccc2[nH]1)S(=O)(=O)OCCC1S(=O)(=O)OCCOS1(=O)=O (centres undefined) | inactive: > 100 µM

Structure (SMILES) | GI50
N#CCCN(CCC#N)c1ccc(C(/N=N/c2ccc(Cl)cc2)=N\c2ccccc2)cc1 | inactive: 14.1 µM
COc1ccc(/N=C\c2cc(OC)c(OC)c(OC)c2)cc1 | inactive: > 100 µM
CCOC(=O)C12CC1(C(=O)OCC)C1CCC2C1 (centres undefined) | inactive: > 100 µM
CCCCCC(C/C=N/N(C)C)C(O)(C(F)(F)F)C(F)(F)F (centres undefined) | inactive: 57.3 µM
O=C1CCC(O)=C1O | inactive: > 100 µM
CC(C)(C)Nc1noc(=O)n1C(C)(C)C | inactive: > 100 µM
O=C1Nc2ccccc2/C1=N/Nc1nc(-c2cccc([N+](=O)[O-])c2)cs1 | inactive: 27.1 µM
Cc1ccccc1OCC(COC(=O)Nc1ccccc1)OC(=O)Nc1ccccc1 (centres undefined) | inactive: > 100 µM
N=C(N)NCCCC(NC(=O)OCCCCCCn1ccc(N)nc1=O)C(=O)O (centres undefined) | inactive: > 100 µM
C/C(=N/N(C=O)C[n+]1ccccc1)C(CN(CC(C)C)CC(C)C)C(=O)Nc1ccc(C)cc1C (centres undefined) | inactive: > 100 µM
CCCNC(=O)N(C)C(=O)N1N=C(c2ccccc2)C1c1ccccc1 (centres undefined) | inactive: > 100 µM
CCCCn1c(C)c(C)c2c1NN=C(C#N)S2(=O)=O | inactive: > 100 µM
Cc1ccc(S(=O)(=O)N/N=C2\CCC3(O)CC2(C)CCC2C3CC2(C)C)cc1 (centres undefined) | inactive: 70.6 µM
C[C@]12CCC(=O)C(OC(=O)c3ccc([N+](=O)[O-])cc3)=C1CCC2=O | inactive: > 100 µM
COc1ccc(C(=O)/C=C/c2ccncc2)cc1OC | inactive: 15.8 µM
N#C/C(=C\Nc1ccccn1)C(=O)c1ccco1 | inactive: > 100 µM
CCCSc1nc(COC(=O)NC)c(COC(=O)NC)n1C | inactive: > 100 µM
Oc1cccc2c(Br)ccnc12 | inactive: 12.6 µM
O=C(N/N=C/c1ccccc1O)c1ccccc1Nc1ccccc1C(=O)N/N=C/c1ccccc1O | active: 0.434 µM
CSC(=N)NNC(=O)CCC(=O)Nc1ccccc1C(F)(F)F | inactive: > 100 µM
CN(C)CCCNc1ccc2nnn3c4ccc(O)cc4c(=O)c1c23 | inactive: 3.57 µM
O=c1cc(N2CCOCC2)n2c(ccc3ccccc32)n1 | inactive: > 100 µM

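How tested: cells in 96-well plates exposed to compound for 48 hours at five concentrations. Abbreviation: GI50, concentration required for 50% inhibition of growth.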 The source made the active and inactive calls. Cut-off read from the data, not from the text of the source: active = GI50 up to about 1.1 µM and inactive = higher. Peptide text beside a SMILES is read from it. * marks the point of attachment. Boc = CC(C)(C)OC(=O)*
